# PubChem BioAssay AID1159614 (National Center for Advancing Translational Sciences (NCATS), 2016)
# Among all 45,000 compounds or so, about 65 (0.1%) were called active. Calls come from the whole dose curve; as a rule, active = well fitted activation curve with a large enough effect; inconclusive = small, poorly fitted or top-dose-only effect; inactive = no such curve, though single readings can be large or run the other way. Some of the results follow.
# Target: Galactocerebrosidase (Homo sapiens) (UniProt P54803)
# Sequence of UniProt P54803 (P54803 whole entry, looked up): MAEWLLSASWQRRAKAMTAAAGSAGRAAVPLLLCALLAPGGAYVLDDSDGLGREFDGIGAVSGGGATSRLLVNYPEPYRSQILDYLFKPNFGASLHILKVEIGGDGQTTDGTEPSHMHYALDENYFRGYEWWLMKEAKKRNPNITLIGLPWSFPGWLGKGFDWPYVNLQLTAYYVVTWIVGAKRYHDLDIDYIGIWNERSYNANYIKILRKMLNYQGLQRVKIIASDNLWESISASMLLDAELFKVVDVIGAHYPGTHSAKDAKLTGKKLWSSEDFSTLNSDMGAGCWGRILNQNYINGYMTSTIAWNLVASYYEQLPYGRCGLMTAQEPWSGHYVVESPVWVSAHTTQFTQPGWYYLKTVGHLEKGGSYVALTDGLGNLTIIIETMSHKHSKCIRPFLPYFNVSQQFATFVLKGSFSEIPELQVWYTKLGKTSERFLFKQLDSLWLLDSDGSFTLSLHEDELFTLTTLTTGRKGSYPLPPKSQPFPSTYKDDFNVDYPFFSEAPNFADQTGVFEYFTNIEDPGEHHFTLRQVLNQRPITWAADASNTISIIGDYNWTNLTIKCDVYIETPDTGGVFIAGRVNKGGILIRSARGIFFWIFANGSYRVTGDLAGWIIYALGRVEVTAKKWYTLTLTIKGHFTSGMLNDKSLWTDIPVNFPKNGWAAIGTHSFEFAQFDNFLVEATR
# Experiment: A Novel Cell-Based Assay to Identify Small Molecules for B -Galactocerebrosidase; note: 0% is about no effect; nearly all actives have a fitted effect of over 65% in size
# Conditions: 145M-Twi-hGALC-G270D cells, HMU-beta-Gal fluorescence, 48 h; series mostly up to 57.5 µM; activation: at the top concentration
# Method in brief: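 qHTS, 1536-well; 145M-Twi-hGALC-G270D cells (WT line also made) in DMEM/F12 + 10% FBS; compound incubation on live cells; HMU-β-gal 0.1 mM final, pH 5.2, NaTC; carbonate stop; fluorescence increase = enhanced residual activity.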
row,Structure (SMILES),activation
1,COc1cccc(CNC(=O)c2ccc3c(c2)N(Cc2ccc(C(F)(F)F)cc2)C(=O)c2ccccc2S3)c1OC,inactive: 6.22%
2,N#Cc1ccccc1S(=O)(=O)N1CCCC(c2nc3c(nnn3Cc3cccc(Cl)c3)c(=O)[nH]2)C1 (stereo unspecified),inactive: -12%
3,CC(C)CCNC(=O)CN1C(=O)c2cccnc2Oc2ccccc21,inactive: 0.0839%
4,Cc1csc2nc(CCNS(=O)(=O)c3ccccc3)cn12,inactive: -5.39%
5,CN(C)c1ccc(C(CNC(=O)c2ccccc2F)N2CCc3ccccc32)cc1 (stereo unspecified),inactive: -13.5%
6,Cc1c(NC(C)C)c(=O)n(-c2ccccc2)n1C,inactive: -16.9%
7,CCOC(=O)c1cc(-c2ccc(F)cc2)n(CC(=O)NCc2ccc(OC)cc2)c1C,inactive: -4.14%
8,COC(=O)c1ccc([C@H]2Nc3ccc(S(=O)(=O)Nc4ccc(C)cc4)cc3[C@H]3C=CC[C@H]32)cc1,inactive: -8.56%
9,CCOc1ccccc1CNC(=O)CN(c1ccc(C)cc1)S(=O)(=O)N(C)C,inactive: -7.91%
10,COc1ccc(-c2nnc(SCC(=O)NCc3ccccc3)nc2-c2ccc(OC)c(OC)c2)cc1OC,inactive: 3.51%
11,Cc1ccc(CN(Cc2ccco2)C(=O)COc2ccc(Cl)cc2Cl)cc1,inactive: 3.65%
12,CCOc1ccc(NC(=O)Cc2ccc(NC(=O)N3CCCCc4ccccc43)cc2)cc1,inactive: 1.37%
13,CC(C)(C)c1ccc(S(=O)(=O)c2cnc(SCC(=O)Nc3ccc(F)c(Cl)c3)[nH]c2=O)cc1,inactive: -11.5%
14,COc1cc(-c2noc(-c3ccc(N4CCCCC4)c([N+](=O)[O-])c3)n2)cc(OC)c1OC,inactive: -16.2%
15,CCOCCc1nn2c(=O)cc(COC(=O)c3ccco3)nc2s1,inactive: -2.9%
16,COc1cccc(CNC(=O)c2nnc(Cc3ccc(Cl)cc3)o2)c1,inactive: -3.34%
17,O=C(Nc1ccc2oc(-c3cc(Br)ccc3Cl)nc2c1)c1ccc2ccccc2c1,inactive: -6.68%
18,CC(C)(C)c1ccc(S(=O)(=O)N2CCN(C(=O)c3cc(-c4ccc(Br)cc4)n[nH]3)CC2)cc1,inactive: -7.08%
19,O=C(CSc1nc(O)c(C/C=C/c2ccccc2)c(=O)[nH]1)Nc1cccc(F)c1,inactive: -12%
20,CCOc1ccc(NC(=O)c2noc3c2CSc2ccccc2-3)cc1,inactive: -13%
21,CN(C(=O)c1oc(=O)c2ccccc2c1-c1ccccc1)c1cccc(Cl)c1,inactive: -12.9%
22,CCCn1c(=O)c2sccc2n2c(CCCC(=O)Nc3ccccc3F)nnc12,inactive: -3.38%
23,COc1ccc(-n2c(SCC(=O)NCc3ccccc3)nc3n[nH]c(C)c3c2=N)cc1,inactive: -15.4%
24,CCOC(=O)Cn1c(=O)n(C2CCCCC2)c2nc(-c3cccc(C)c3)nc(C(N)=O)c21,inactive: -14.4%
25,COc1cccc(N2CCN(C(=O)Cn3ncc4c(=O)oc5ccccc5c43)CC2)c1,inactive: -12.2%
26,O=C1CC(c2cccc(F)c2)c2c(n3ncnc3[nH]c2=O)N1 (stereo unspecified),inactive: -6.43%
